Experimental data: publication PMC11995724, “Antibiotic target discovery by integrated phenotypic and activity-based profiling of electrophilic fragments” (Cell chemical biology, 2025)
In all, about 3,200 compounds went through this assay and about 75 (2%) showed an effect of 50% or more. Some of the results follow.

Each compound was assayed on T1, S. aureus MSSA476. Details: relative growth, OD600, TSB; 25 µM; inhibitor.
T1 construct: MSSA476
Design: species or system S. aureus MSSA476 (TSB) or V. cholerae SAD30 (LB); 384-well bacterial growth screen at 25 uM, OD600 relative to DMSO control
`C=CC(=O)NCc1cc(-c2ccccc2OC)no1` [2-C18, N-{[3-(2-methoxyphenyl)-1,2-oxazol-5-yl]methyl}prop-2-enamide] was tested, and the “% of control remaining” value was 111.053%.
For `CC(=O)N1CCc2cc(C(=O)C(C)Cl)ccc21` (stereo not drawn) [10-L22, 1-(1-acetyl-2,3-dihydro-1H-indol-5-yl)-2-chloropropan-1-one], the “% of control remaining” value was 124.375%.
`COc1cc(NC(=O)CCl)cc(OC)c1OC` [4-N12, 2-chloro-N-(3,4,5-trimethoxyphenyl)acetamide] was tested, and the “% of control remaining” value was 89.9476%.
With `CC(Cl)C(=O)NC1COc2ccc(F)cc21` (stereo not drawn) [7-A17, 2-chloro-N-(5-fluoro-2,3-dihydro-1-benzofuran-3-yl)propanamide] the “% of control remaining” value was 95.4474%.
In the case of `CC(C#N)Oc1ccc(C=C(C#N)C(=O)Nc2ccccc2Cl)cc1` (stereo not drawn) [9-E05, N-(2-chlorophenyl)-2-cyano-3-[4-(1-cyanoethoxy)phenyl]prop-2-enamide], the “% of control remaining” value is reported as 124.644%.
In the case of `COc1ccc(NC(=O)C(C)Cl)cc1OC` (stereo not drawn) [6-F12, 2-chloro-N-(3,4-dimethoxyphenyl)propanamide], the “% of control remaining” value is reported as 97.3171%.
`Cc1csc(CN2CCN(C(=O)C(C)Cl)CC2)n1` (stereo not drawn) [5-H17, 2-chloro-1-{4-[(4-methyl-1,3-thiazol-2-yl)methyl]piperazin-1-yl}propan-1-one] was tested, and the “% of control remaining” value was 111.111%.
With `COc1ccc(-c2csc(NC(=O)CCl)n2)c(O)c1` [4-A11, 2-chloro-N-[4-(2-hydroxy-4-methoxyphenyl)-1,3-thiazol-2-yl]acetamide] the “% of control remaining” value was 1.1434%.
`COc1ccc(C2CCCN2C(=O)CCl)c(OC)c1` (stereo not drawn) [4-P22, 2-chloro-1-[2-(2,4-dimethoxyphenyl)pyrrolidin-1-yl]ethan-1-one] was tested, and the “% of control remaining” value was 106.717%.
With `CC(C)Oc1ccccc1C=C(C#N)C(=O)Nc1ccccc1Cl` [9-N20, N-(2-chlorophenyl)-2-cyano-3-[2-(propan-2-yloxy)phenyl]prop-2-enamide] the “% of control remaining” value was 84.4944%.
With `O=C(CCl)NC(c1ccccc1)c1ccco1` (stereo not drawn) [4-A08, 2-chloro-N-[(furan-2-yl)(phenyl)methyl]acetamide] the “% of control remaining” value was 103.668%.
With `CC(Cl)C(=O)NC1(c2ccccc2)CCOCC1` (stereo not drawn) [7-A11, 2-chloro-N-(4-phenyloxan-4-yl)propanamide] the “% of control remaining” value was 82.8885%.
`COC(=O)c1ccccc1NC(=O)CCl` [5-B12, methyl 2-(2-chloroacetamido)benzoate] was tested, and the “% of control remaining” value was 100.911%.
For `CC(Cl)C(=O)N1CCNC(=O)C1c1cccs1` (stereo not drawn) [6-J17, 4-(2-chloropropanoyl)-3-(thiophen-2-yl)piperazin-2-one], the “% of control remaining” value was 119.854%.
With `COc1cccc([C@H]2C[C@H](N(C)C(=O)C(C)Cl)C2)c1` (stereo partly drawn) [6-B17, 2-chloro-N-methyl-N-[(1r,3r)-3-(3-methoxyphenyl)cyclobutyl]propanamide] the “% of control remaining” value was 110.293%.
In the case of `O=C(CCl)NCc1[nH]nc2c1CCCC2` [6-E04, 2-chloro-N-[(4,5,6,7-tetrahydro-2H-indazol-3-yl)methyl]acetamide], the “% of control remaining” value is reported as 90.4878%.
In the case of `CC(NC(=O)CCl)c1ccc2ncsc2c1` (stereo not drawn) [6-A18, N-[1-(1,3-benzothiazol-6-yl)ethyl]-2-chloroacetamide], the “% of control remaining” value is reported as 94.5854%.
In the case of `Cc1noc(C)c1CC(=O)N1CCN(C(=O)C(C)Cl)CC1` (stereo not drawn) [6-F11, 2-chloro-1-{4-[2-(3,5-dimethyl-1,2-oxazol-4-yl)acetyl]piperazin-1-yl}propan-1-one], the “% of control remaining” value is reported as 92.5366%.
For `CCN(CC)C(=O)/C(C#N)=C/c1cc(O)c(O)c([N+](=O)[O-])c1` [9-B04, (2E)-2-cyano-3-(3,4-dihydroxy-5-nitrophenyl)-N,N-diethylprop-2-enamide], the “% of control remaining” value was 68.9139%.
`CC(C1CC1)N(CC(F)(F)F)C(=O)CCl` (stereo not drawn) [5-P08, 2-chloro-N-(1-cyclopropylethyl)-N-(2,2,2-trifluoroethyl)acetamide] was tested, and the “% of control remaining” value was 100.911%.
`CC(Cl)C(=O)Nc1ccccc1Cl` (stereo not drawn) [4-D11, 2-chloro-N-(2-chlorophenyl)propanamide] was tested, and the “% of control remaining” value was 126.536%.
With `O=C(CCl)N(c1ccccc1)C1CCCCC1` [4-L18, 2-chloro-N-cyclohexyl-N-phenylacetamide] the “% of control remaining” value was 109.767%.
`COc1ccc(C=C(C#N)C(=O)Nc2cccc(Cl)c2)cc1` [8-I09, N-(3-chlorophenyl)-2-cyano-3-(4-methoxyphenyl)prop-2-enamide] was tested, and the “% of control remaining” value was 124.813%.
In the case of `Cc1cc(C(=O)CCl)c(C)n1-c1ccc(C(C)C)cc1` [10-J12, 2-chloro-1-{2,5-dimethyl-1-[4-(propan-2-yl)phenyl]-1H-pyrrol-3-yl}ethan-1-one], the “% of control remaining” value is reported as 5.3125%.
`O=C(CCl)N1CCCSc2ccccc21` [4-E16, 2-chloro-1-(2,3,4,5-tetrahydro-1,5-benzothiazepin-5-yl)ethan-1-one] was tested, and the “% of control remaining” value was 116.627%.
For `C=CC(=O)N(C)Cc1cccnc1` [3-L11, N-methyl-N-[(pyridin-3-yl)methyl]prop-2-enamide], the “% of control remaining” value was 110.753%.
In the case of `CC(Cl)C(=O)NCC1CC(=O)N(c2ccccc2)C1` (stereo not drawn) [7-O20, 2-chloro-N-[(5-oxo-1-phenylpyrrolidin-3-yl)methyl]propanamide], the “% of control remaining” value is reported as 113.658%.
With `Cc1cc(C=C(C#N)C(=O)Nc2cnn(C)c2)c(C)n1C1CCCCC1` [9-B17, 2-cyano-3-(1-cyclohexyl-2,5-dimethyl-1H-pyrrol-3-yl)-N-(1-methyl-1H-pyrazol-4-yl)prop-2-enamide] the “% of control remaining” value was 85.9925%.
In the case of `CCN(C(=O)CCl)c1c(N)n(Cc2ccccc2)c(=O)[nH]c1=O` [4-P10, N-(6-amino-1-benzyl-2,4-dioxo-1,2,3,4-tetrahydropyrimidin-5-yl)-2-chloro-N-ethylacetamide], the “% of control remaining” value is reported as 99.4759%.
For `C=CC(=O)NCc1ccno1` [1-O07, N-[(1,2-oxazol-5-yl)methyl]prop-2-enamide], the “% of control remaining” value was 97.4066%.
